# Laboratory results: PubChem BioAssay (NCATS)
# Values joined by “and” are separate entries in the source; they are usually repeats but may differ in a detail not shown here. Equal values may be shown once. Some of the results follow. These are further read-outs of the screen, such as a control signal, another cell line or another target. No call is given for them. Compounds called inactive in the main read-out are mostly missing here.
# Assay: qHTS Assay for Lipid Storage Modulators (AID 1519)
# Details: Drosophila S3 cells, BODIPY lipid droplet/cell ratio, laser cytometry; measured here: cell count channel max response; cells loaded with oleic acid
# Outline: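 Cells seeded at 5,000 per well were treated with compounds over a concentration series and loaded with oleic acid (400 uM, as added). Lipid droplet fluorescence (488 nm excitation, 500-530 nm channel) was read by laser-scanning cytometry and normalized to 20 uM Triacsin C.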
row,SMILES,max response
1,CCNc1ncc2nc(-c3ccc(OC)cc3)c(=O)n(Cc3ccc(F)cc3)c2n1,1.7%
2,O=C(OCCN1CCOCC1)C1(c2ccccc2)CCCCC1,70.3% and -10.5%
3,O=C(c1ccncc1)N1CCC[C@@]2(CCN(Cc3ccccc3)C2)C1,30.2%
4,COCCn1c(=O)c(-c2cccc(C#N)c2)nc2cnc(N3CCNCC3)nc21,6.04%
5,COc1ncc2nc(-c3ccc(Cl)cc3)c(=O)n(CCC#N)c2n1,34.2%
6,COc1ncc2nc(-c3ccccc3)c(=O)n(CCC#N)c2n1,44%
7,Cc1ccc(-c2nn(CC(C)(C)C)c3ncnc(N)c23)cc1,77.9%
8,CS(=O)(=O)Nc1ccc([N+](=O)[O-])cc1OC1CCCCC1,33.3%
9,COCCn1c(=O)c(-c2ccc(OC)cc2)nc2cnc(OC)nc21,29.4%
10,C[C@H]1[C@H](C)CC[C@]2(C(=O)O)CC[C@]3(C)C(=CCC4[C@@]5(C)CC[C@H](O)C(C)(C)[C@@H]5CC[C@]43C)[C@H]12 (stereo not given in full),81.4%
11,C1CCc2nnnn2CC1,21.3%
12,Cc1noc(C)c1C(=O)N1CCC[C@@]2(CCN(Cc3ccc(C#N)cc3)C2)C1,35.6%
13,O=C1c2ccccc2C(=O)c2c1ccc(O)c2O,99.6%
14,O=C(/C=C/c1ccccc1)c1cccs1,99.4%
15,COc1cc2c(cc1OC)C(=O)Cc1ccc3c(c1CN(C)CC2)OCO3,78.6%
16,COCCn1c(=O)c(-c2ccc(OC)cc2)nc2cnc(Nc3ccccc3)nc21,20.2%
17,COCCn1c(=O)c(CCc2ccccc2)nc2cnc(OC)nc21,8.85%
18,COc1cccc(-c2nccc(NCc3cccnc3)n2)c1,20.8%
19,CCOc1ccc(/C=C/C(=O)c2cccs2)cc1,83.9%
20,C=CCN1CCc2cc(O)c(O)cc2[C@H](c2ccccc2)C1,50.3%

row,SMILES,max response
1,CC(C)(C)c1cc(O)c(C(C)(C)C)cc1O,88.2%
2,c1cncc(-c2cncnc2NCc2cccs2)c1,35.3%
3,Cc1cc(NC(=O)Nc2ccc(N(C)C)cc2)c2cc(F)cc(F)c2n1,-45.7%
4,COCCn1c(=O)c(-c2cccc(C#N)c2)nc2cnc(Oc3cccc(Cl)c3)nc21,-3.89%
5,COc1cccc(-c2ccc3ncnc(N(C)C)c3c2)c1,4.11%
6,O=c1c(-c2ccccc2)nc2cnc(N3CCNCC3)nc2n1Cc1ccc(F)cc1,23.3%
7,COc1cccc(-c2nc(NC3CC3)c3ccccc3n2)c1,12%
8,COCCNc1nc(-c2cccc(NS(C)(=O)=O)c2)nc2ccccc12,35.2%
9,COc1ccc(Oc2ncc3nc(-c4ccc(F)cc4)c(=O)n(C4CC4)c3n2)cc1,11.3%
10,COc1ccc(C(=O)N2CCC[C@@]3(CCN(c4ccccc4)C3)C2)cc1,16.5%
11,c1ccc(Nc2nc(-c3cccnc3)nc3ccccc23)cc1,20.1%
12,N#CCCn1c(=O)cnc2cnc(Nc3ccccc3)nc21,23%
13,COc1cccc(CNc2ccc3nc(-c4ccc(N)cc4)c(OC)n3n2)c1,98.1%
14,COc1ccc2[nH]cc(CCNc3nc(-c4cccnc4)nc4ccccc34)c2c1,26.7%
15,CS(=O)(=O)Nc1cccc(-c2nccc(Nc3ccc(F)cc3)n2)c1,-0.958%
16,COc1ccccc1CNc1ccnc(-c2cccnc2)n1,20.8%
17,COc1ccc(Oc2ncc3nc(-c4cc(F)cc(F)c4)c(=O)n(CCC#N)c3n2)cc1,4.49%
18,O=C(c1csnn1)N1CCC2(CCCN(c3ccc(-c4ccccc4)cc3)C2)CC1,27.6%
19,CO/N=C(\C(=O)N[C@@H]1C(=O)N2C(C(=O)O)=C(CSc3nc(=O)c(O)nn3C)CSC12)c1csc(N)n1 (stereo not given in full),54.1%
20,COc1ccccc1CCn1c(=O)c(-c2cn(C)c3ccccc23)nc2cncnc21,19.9%
